Source: PMC9911399, “Two distinct binding modes provide the RNA-binding protein RbFox with extraordinary sequence specificity”
Substitutions are numbered along the chain they refer to; changes in the protein carry UniProt numbers. The list shows a part of the results.

T1: RBFOX1 RRM RbFoxmut (Fox-RRM*) (Homo sapiens, UniProt Q9NWB1 109-208, R118D;E147R;N151S;E152T)
T1 sequence: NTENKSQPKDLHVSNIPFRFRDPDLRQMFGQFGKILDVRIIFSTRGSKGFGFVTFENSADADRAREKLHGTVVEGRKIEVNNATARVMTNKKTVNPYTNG

B1: UAGUCCA (DNA:RNA)
RNA: GGGAGACCGGAAUUCAGAUUGUCCUAGUCCAUUAAAUCCCGUCGUAGCCACCA
DNA 1: CAATCTGAATTCCGGTCTCCC
DNA 2: TGGTGGCTACGACGGGATT
B2: UGUACCG (DNA:RNA)
RNA: B1 RNA with A26G, G27U, U28A, A31G
DNA 1: CAATCTGAATTCCGGTCTCCC
DNA 2: TGGTGGCTACGACGGGATT
B3: GAUACUC (DNA:RNA)
RNA: B1 RNA with U25G, G27U, U28A, C30U, A31C
DNA 1: CAATCTGAATTCCGGTCTCCC
DNA 2: TGGTGGCTACGACGGGATT
B4: CCGGAGC (DNA:RNA)
RNA: B1 RNA with U25C, A26C, U28G, C29A, C30G, A31C
DNA 1: CAATCTGAATTCCGGTCTCCC
DNA 2: TGGTGGCTACGACGGGATT
B5: GGGUCAG (DNA:RNA)
RNA: B1 RNA with U25G, A26G, C30A, A31G
DNA 1: CAATCTGAATTCCGGTCTCCC
DNA 2: TGGTGGCTACGACGGGATT
B6: CAGCCAA (DNA:RNA)
RNA: B1 RNA with U25C, U28C, C30A
DNA 1: CAATCTGAATTCCGGTCTCCC
DNA 2: TGGTGGCTACGACGGGATT
B7: AAUCAUC (DNA:RNA)
RNA: B1 RNA with U25A, G27U, U28C, C29A, C30U, A31C
DNA 1: CAATCTGAATTCCGGTCTCCC
DNA 2: TGGTGGCTACGACGGGATT
B8: ACUCCCA (DNA:RNA)
RNA: B1 RNA with U25A, A26C, G27U, U28C
DNA 1: CAATCTGAATTCCGGTCTCCC
DNA 2: TGGTGGCTACGACGGGATT
B9: ACUAGGC (DNA:RNA)
RNA: GGGAGACCGGAAUUCAGAUUGUCCACUAGGCUUAAAUCCCGUCGUAGCCACCA
DNA 1: CAATCTGAATTCCGGTCTCCC
DNA 2: TGGTGGCTACGACGGGATT

Target: T1, RBFOX1 RRM RbFoxmut (Fox-RRM*)
Experiment: EMSA; HiTS-Eq, 1 nM pool, 10 min; buffer printed only for the single-RNA assays: 10 mM Tris pH 7.5, 150 mM NaCl, 3.4 mM EDTA, 0.001% NP-40, 30 C
Conditions: tags: His6 N-terminal (pET28a); label: 5' 32P
Procedure, shortened: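 Relative association constants, normalised to the cognate motif, were derived by comparing read counts of each RNA species with those of the control reaction. The RNA sequenced was the free fraction, separated by 8% native PAGE after a 10 min equilibration in 50 µL of 1 nM 5′-radiolabelled RNA (7 randomized nucleotides) with increasing concentrations of purified wild-type or mutant RbFox RRM.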

Binder | binding signal
B1 | 0.107 KA relative to UGCAUGU
B2 | 0.148 KA relative to UGCAUGU
B3 | 0.0549 KA relative to UGCAUGU
B4 | 0.11 KA relative to UGCAUGU
B5 | 0.132 KA relative to UGCAUGU
B6 | 0.0742 KA relative to UGCAUGU
B7 | 0.0672 KA relative to UGCAUGU
B8 | 0.0566 KA relative to UGCAUGU
B9 | 0.119 KA relative to UGCAUGU
